Experimental data reported in the supplement of paper PMC9151546.
Most values come without repeats; read them as rough.

How the values were obtained:
CHO-K1 [1] = assay: hypodiploid nuclei frequency (% of nucleated events); higher = more hypodiploid events (aneugenic)
CHO-K1 [2] = assay: relative survival (nuclei to bead ratio vs DMSO control) (% of vehicle control); higher = more surviving cells
CHO-K1 [3] = assay: micronucleus frequency (% of nucleated events); higher = more micronuclei (genotoxic)
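Wherever hypodiploid nuclei frequency (% of nucleated events) is given: hypodiploid nuclei gated on a flow cytometer with 488 nm excitation after SYTOX Green staining, cultures at 37 °C, positive controls vinblastine without S9 and cyclophosphamide with S9.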
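Wherever micronucleus frequency (% of nucleated events) is given: cells lysed with nuclei stained by SYTOX Green, then micronucleus-gated events counted against nucleated events by flow cytometry with 488 nm excitation.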
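Wherever relative survival (nuclei to bead ratio vs DMSO control) is given: Lysed-cell nuclei stained with SYTOX Green and counted against counting beads by flow cytometry at 488 nm excitation, with vinblastine (no S9) and cyclophosphamide (plus S9) as positive controls.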

Cc1ccc(N)cc1O [5-Amino-2-methylphenol]
Settings | hypodiploid nuclei frequency, CHO-K1 [1] [%] | micronucleus frequency, CHO-K1 [3] [%] | relative survival, CHO-K1 [2]
concentration: 4.55 (µM), S9 metabolic activation: with S9, exposure time: 3-4 hours | 0.32 | 2.14 | 106
concentration: 4.55 (µM), S9 metabolic activation: without S9, exposure time: 24 hours | 0.76 | 1.5 | 89.1
concentration: 5.69 (µM), S9 metabolic activation: with S9, exposure time: 3-4 hours | 0.26 | 2.04 | 140
concentration: 5.69 (µM), S9 metabolic activation: without S9, exposure time: 24 hours | 1.3 | 1.9 | 101
concentration: 7.11 (µM), S9 metabolic activation: with S9, exposure time: 3-4 hours | 0.28 | 2.32 | 122
concentration: 7.11 (µM), S9 metabolic activation: without S9, exposure time: 24 hours | 1.16 | 1.28 | 92.4
concentration: 8.88 (µM), S9 metabolic activation: with S9, exposure time: 3-4 hours | 0.26 | 2.6 | 107
concentration: 8.88 (µM), S9 metabolic activation: without S9, exposure time: 24 hours | 1.52 | 1.04 | 99.2
concentration: 11.1 (µM), S9 metabolic activation: with S9, exposure time: 3-4 hours | 0.36 | 2.82 | 123
concentration: 11.1 (µM), S9 metabolic activation: without S9, exposure time: 24 hours | 0.98 | 1.04 | 116
concentration: 13.9 (µM), S9 metabolic activation: with S9, exposure time: 3-4 hours | 0.46 | 2.34 | 112
concentration: 13.9 (µM), S9 metabolic activation: without S9, exposure time: 24 hours | 0.82 | 0.74 | 108
concentration: 17.4 (µM), S9 metabolic activation: with S9, exposure time: 3-4 hours | 0.22 | 2.28 | 125
concentration: 17.4 (µM), S9 metabolic activation: without S9, exposure time: 24 hours | 1.06 | 1.06 | 106
concentration: 21.7 (µM), S9 metabolic activation: with S9, exposure time: 3-4 hours | 0.26 | 3.12 | 138
concentration: 21.7 (µM), S9 metabolic activation: without S9, exposure time: 24 hours | 0.82 | 1.3 | 97.5
concentration: 27.1 (µM), S9 metabolic activation: with S9, exposure time: 3-4 hours | 0.3 | 1.44 | 127
concentration: 27.1 (µM), S9 metabolic activation: without S9, exposure time: 24 hours | 2.38 | 1.96 | 90.9
concentration: 33.9 (µM), S9 metabolic activation: with S9, exposure time: 3-4 hours | 0.42 | 1.7 | 162
concentration: 33.9 (µM), S9 metabolic activation: without S9, exposure time: 24 hours | 1.94 | 1.1 | 53.7
concentration: 42.4 (µM), S9 metabolic activation: with S9, exposure time: 3-4 hours | 0.2 | 1.5 | 149
concentration: 42.4 (µM), S9 metabolic activation: without S9, exposure time: 24 hours | 1.76 | 1.7 | 76.6
concentration: 53 (µM), S9 metabolic activation: with S9, exposure time: 3-4 hours | 0.44 | 1.56 | 132
concentration: 53 (µM), S9 metabolic activation: without S9, exposure time: 24 hours | 2.52 | 1.34 | 73
concentration: 66.2 (µM), S9 metabolic activation: with S9, exposure time: 3-4 hours | 0.38 | 2.38 | 132
concentration: 66.2 (µM), S9 metabolic activation: without S9, exposure time: 24 hours | 1.24 | 1.34 | 90
concentration: 82.7 (µM), S9 metabolic activation: with S9, exposure time: 3-4 hours | 0.32 | 1.7 | 125
concentration: 82.7 (µM), S9 metabolic activation: without S9, exposure time: 24 hours | 3.12 | 1.6 | 55.1
concentration: 103 (µM), S9 metabolic activation: with S9, exposure time: 3-4 hours | 0.18 | 1.86 | 111
concentration: 103 (µM), S9 metabolic activation: without S9, exposure time: 24 hours | 1.88 | 1.7 | 51.5
concentration: 129 (µM), S9 metabolic activation: with S9, exposure time: 3-4 hours | 0.2 | 1.8 | 95.8
concentration: 129 (µM), S9 metabolic activation: without S9, exposure time: 24 hours | – | – | 34.4
concentration: 162 (µM), S9 metabolic activation: with S9, exposure time: 3-4 hours | 0.3 | 1.82 | 121
concentration: 162 (µM), S9 metabolic activation: without S9, exposure time: 24 hours | 3.25 | 1.81 | 41.2
concentration: 202 (µM), S9 metabolic activation: with S9, exposure time: 3-4 hours | 0.18 | 2.04 | 113
concentration: 202 (µM), S9 metabolic activation: without S9, exposure time: 24 hours | – | – | 39

COc1ccc(C)cc1N [2-Methoxy-5-methylaniline]
Settings | hypodiploid nuclei frequency, CHO-K1 [1] [%] | micronucleus frequency, CHO-K1 [3] [%] | relative survival, CHO-K1 [2]
concentration: 4.5 (µM), S9 metabolic activation: with S9, exposure time: 3-4 hours | 0.34 | 1.12 | 142
concentration: 4.5 (µM), S9 metabolic activation: without S9, exposure time: 24 hours | 0.52 | 1.5 | 104
concentration: 5.63 (µM), S9 metabolic activation: with S9, exposure time: 3-4 hours | 0.16 | 0.86 | 138
concentration: 5.63 (µM), S9 metabolic activation: without S9, exposure time: 24 hours | 0.7 | 2.72 | 103
concentration: 7.04 (µM), S9 metabolic activation: with S9, exposure time: 3-4 hours | 0.2 | 1.16 | 137
concentration: 7.04 (µM), S9 metabolic activation: without S9, exposure time: 24 hours | 0.64 | 2.52 | 96.3
concentration: 8.8 (µM), S9 metabolic activation: with S9, exposure time: 3-4 hours | 0.3 | 1.5 | 151
concentration: 8.8 (µM), S9 metabolic activation: without S9, exposure time: 24 hours | 0.56 | 2.54 | 120
concentration: 11 (µM), S9 metabolic activation: with S9, exposure time: 3-4 hours | 0.22 | 1.08 | 123
concentration: 11 (µM), S9 metabolic activation: without S9, exposure time: 24 hours | 1 | 2.08 | 110
concentration: 13.7 (µM), S9 metabolic activation: with S9, exposure time: 3-4 hours | 0.18 | 1 | 159
concentration: 13.7 (µM), S9 metabolic activation: without S9, exposure time: 24 hours | 0.66 | 1.88 | 123
concentration: 17.2 (µM), S9 metabolic activation: with S9, exposure time: 3-4 hours | 0.18 | 1.16 | 165
concentration: 17.2 (µM), S9 metabolic activation: without S9, exposure time: 24 hours | 0.92 | 2.06 | 114
concentration: 21.5 (µM), S9 metabolic activation: with S9, exposure time: 3-4 hours | 0.16 | 1.2 | 150
concentration: 21.5 (µM), S9 metabolic activation: without S9, exposure time: 24 hours | 0.94 | 2.42 | 105
concentration: 26.8 (µM), S9 metabolic activation: with S9, exposure time: 3-4 hours | 0.3 | 1.48 | 128
concentration: 26.8 (µM), S9 metabolic activation: without S9, exposure time: 24 hours | 0.76 | 2.4 | 91.2
concentration: 33.6 (µM), S9 metabolic activation: with S9, exposure time: 3-4 hours | 0.2 | 1.18 | 137
concentration: 33.6 (µM), S9 metabolic activation: without S9, exposure time: 24 hours | 0.8 | 2.6 | 114
concentration: 41.9 (µM), S9 metabolic activation: with S9, exposure time: 3-4 hours | 0.26 | 1.26 | 134
concentration: 41.9 (µM), S9 metabolic activation: without S9, exposure time: 24 hours | 0.66 | 2.06 | 100
concentration: 52.4 (µM), S9 metabolic activation: with S9, exposure time: 3-4 hours | 0.1 | 1.06 | 123
concentration: 52.4 (µM), S9 metabolic activation: without S9, exposure time: 24 hours | 0.92 | 2.82 | 84.6
concentration: 65.5 (µM), S9 metabolic activation: with S9, exposure time: 3-4 hours | 0.28 | 1.46 | 122
concentration: 65.5 (µM), S9 metabolic activation: without S9, exposure time: 24 hours | 0.96 | 4.12 | 101
concentration: 81.9 (µM), S9 metabolic activation: with S9, exposure time: 3-4 hours | 0.26 | 1.04 | 136
concentration: 81.9 (µM), S9 metabolic activation: without S9, exposure time: 24 hours | 1.1 | 2.7 | 91.2
concentration: 102 (µM), S9 metabolic activation: with S9, exposure time: 3-4 hours | 0.28 | 1.06 | 120
concentration: 102 (µM), S9 metabolic activation: without S9, exposure time: 24 hours | 1.26 | 3.44 | 87.4
concentration: 128 (µM), S9 metabolic activation: with S9, exposure time: 3-4 hours | 0.16 | 0.86 | 132
concentration: 128 (µM), S9 metabolic activation: without S9, exposure time: 24 hours | 1.42 | 3.16 | 97.8
concentration: 160 (µM), S9 metabolic activation: with S9, exposure time: 3-4 hours | 0.24 | 1.34 | 130
concentration: 160 (µM), S9 metabolic activation: without S9, exposure time: 24 hours | 1.56 | 3.26 | 99.8
concentration: 200 (µM), S9 metabolic activation: with S9, exposure time: 3-4 hours | 0.2 | 1.12 | 155
concentration: 200 (µM), S9 metabolic activation: without S9, exposure time: 24 hours | 2.08 | 3 | 97.8
